Source: publication PMC6919601, “Identification of Plasmodium dipeptidyl aminopeptidase allosteric inhibitors by high throughput screening” (PLoS ONE, 2019)
Hit rate of the full screen: of about 110,000 compounds, about 230 (0.21%) showed an effect of 50% or more. Some of the results follow.

biological target: DPAP1 (Plasmodium falciparum, UniProt Q8IIJ9); experiment: primary screen, percent inhibition; read by cleavage of a fluorogenic dipeptide substrate; higher = more effect of the substance; set-up: species or system P. falciparum D10 trophozoite lysates; single well
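Note: 30 min substrate incubation versus DMSO and 10 µM JCP410 controls.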

Chain of DPAP1 (Q8IIJ9 whole entry, looked up): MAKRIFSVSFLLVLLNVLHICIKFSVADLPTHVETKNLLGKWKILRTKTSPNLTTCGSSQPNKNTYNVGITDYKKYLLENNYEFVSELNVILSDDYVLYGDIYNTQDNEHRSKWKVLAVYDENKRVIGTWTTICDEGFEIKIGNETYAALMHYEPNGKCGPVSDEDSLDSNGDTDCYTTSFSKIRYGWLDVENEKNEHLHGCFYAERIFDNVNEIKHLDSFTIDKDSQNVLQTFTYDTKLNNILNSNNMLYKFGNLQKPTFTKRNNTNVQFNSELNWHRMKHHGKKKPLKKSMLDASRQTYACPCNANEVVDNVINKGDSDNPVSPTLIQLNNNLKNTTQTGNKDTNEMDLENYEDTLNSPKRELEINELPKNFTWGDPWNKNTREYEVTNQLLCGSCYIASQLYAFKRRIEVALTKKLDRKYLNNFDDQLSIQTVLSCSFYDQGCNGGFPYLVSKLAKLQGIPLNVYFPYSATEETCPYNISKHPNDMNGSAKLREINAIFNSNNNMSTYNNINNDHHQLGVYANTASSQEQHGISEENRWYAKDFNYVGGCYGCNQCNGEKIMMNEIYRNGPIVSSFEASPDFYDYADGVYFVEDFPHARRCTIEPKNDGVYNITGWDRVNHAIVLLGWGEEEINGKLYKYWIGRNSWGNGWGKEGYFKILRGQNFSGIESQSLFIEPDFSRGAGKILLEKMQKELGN

Structure (SMILES) | % Inhibition @ 10 uM [%]
COc1ccc(OC)c(N(CC(=O)Nc2ccccc2Br)S(C)(=O)=O)c1 | 5.24
COc1ccc(C(=O)NCc2nnc(SCC(=O)NCc3ccc4c(c3)OCO4)o2)cc1 | 5.83
CCCn1c2ccccc2c2cnn(CC(=O)N(Cc3ccco3)C3CCCC3)c(=O)c21 | -2.21
Clc1ccc(-c2noc3ncnc(NCCN4CCOCC4)c23)cc1 | -2.19
Cc1ccc(-c2csc(/C(C#N)=C/c3ccccc3[N+](=O)[O-])n2)c(C)c1 | -2
CC1CC(C)CN(CCCNC(=O)CN(C)c2nnc(N3CCCC3=O)s2)C1 (stereo not drawn) | -6.99
COc1cccc(NC(=O)C(C)Oc2cccc(C)c2)c1 (stereo not drawn) | 8.38
Nc1nc2nc(-c3cccs3)cc(C(F)(F)F)n2n1 | 0.032
O=S1(=O)C(/C=N/CC2CCCO2)=C(O)c2sccc2N1Cc1ccc(F)cc1 (stereo not drawn) | -3.09
O=C(CSc1nc2cccnc2[nH]1)N1CCOCC1 | -1.24
CC(=O)c1cccc(NC(=O)c2c(-c3c(Cl)cccc3Cl)noc2C)c1 | 1.57
CCOc1ccc(-c2nc3cc(NC(=O)c4ccc(Br)o4)ccc3o2)cc1 | -2.82
CC(C)C[C@H](NC(=O)OCc1ccc(C(F)(F)F)cc1)C(=O)NCC#N | -6.46
O=C(NCc1ccco1)C(Sc1ccccc1)c1ccccc1 (stereo not drawn) | -2.6
COCCNC(=O)c1noc2c1COc1ccc(C)cc1-2 | -3.77
CSc1ccc(CN2CCCCC2CCO)cc1 (stereo not drawn) | -2.78
Cc1cc(O)n(CCc2ccccc2)c(=O)c1C#N | 0.487
CCOC(=O)c1c(N)sc2c1CC(C)(C)NC2(C)C | 4.38
CC(C)Cc1ccc(C(C)C(=O)NC(C)c2ccccc2)cc1 (stereo not drawn) | 4.93
COc1cccc(-n2nnc3c(=O)n(CC(=O)NCc4ccccc4Cl)cnc32)c1 | -3.94
COc1ccc(OC)c(-c2cc(C(=O)N3CCCCC3C)no2)c1 (stereo not drawn) | -5.77
Cc1ccc2c(c1)-c1onc(C(=O)N3CC=C(c4ccccc4)CC3)c1CO2 | -7.52
OCCNc1nc(O)c2c(n1)-c1ccccc1CC21CCCCC1 | -1.99
O=C(Cn1cnc2onc(-c3ccc(F)cc3)c2c1=O)N1CCc2ccccc2C1 | 5.71
O=C(c1ccccc1)c1cccn1CC(=O)N1CCc2ccccc2C1 | -5.89

Structure (SMILES) | % Inhibition @ 10 uM [%]
Cc1ccc2c(CC(=O)Nc3nc4ccc(S(C)(=O)=O)cc4s3)coc2c1C | -2.4
C=CCOc1ccc(C2c3c(n[nH]c3-c3c(C)cc(C)cc3O)C(=O)N2CCO)cc1 (stereo not drawn) | 1.67
CN1CCC(N2CC=C(c3ccc(F)cc3)CC2)CC1 | -1.75
COc1ccc(S(=O)(=O)N(CC(=O)NCC2CCCO2)c2cccc(Cl)c2)cc1 (stereo not drawn) | 3.49
O=C(C1=C(O)C(=O)N(CCCn2ccnc2)C1c1ccncc1)c1cc2ccccc2o1 (stereo not drawn) | -4.33
Fc1ccc(N2CCN(Cc3ccc4c(c3)OCO4)CC2)cc1 | -0.0404
COc1ccc(Cl)cc1C1C2=C(CC(C)(C)CC2=O)N(CC(=O)O)C2=C1C(=O)CC(C)(C)C2 | -2.09
O[C@]12CCCC[C@@H]1[C@@H](c1cccc(F)c1)NCC2 | -1.8
Cc1ccc(C2C(C(=O)c3ccc4c(c3)OCCO4)=C(O)C(=O)N2CCN2CCOCC2)cc1 (stereo not drawn) | -3.49
CCOC(=O)N1CCN(C(=O)c2noc3c2COc2ccccc2-3)CC1 | 1.68
Cc1cc(C)nc(NS(=O)(=O)c2ccc(NC(=O)c3ccco3)cc2)n1 | -3.9
CCOC(=O)c1[nH]c2c(c1Cc1ccccc1OC)C(=O)CC(c1cccs1)C2 (stereo not drawn) | 3.5
COc1cccc(C2OCCN(Cc3ccccc3)C(=O)c3[nH]c4ccccc4c32)c1 (stereo not drawn) | 3.68
Cc1cccc(NC(=O)C2CCCN(c3ncnc4c3nc3n4CCCCC3)C2)n1 (stereo not drawn) | -5.3
CC(=O)C(C)n1c(N2CCOCC2)nc2c1c(=O)n(C)c(=O)n2C (stereo not drawn) | -3.27
NS(=O)(=O)c1ccc(CCNC(=O)c2cc(-c3ccccc3)nc3ccccc23)cc1 | -5.28
Clc1cccc(N2CCN(Cc3ccoc3)CC2)c1 | -1.86
Cc1ccc(NC(=O)c2sc3nc(-c4ccncc4)ccc3c2N)cc1F | -10.7
COc1cccc(C(=O)N2CCN(Cc3ccc4c(c3)OCO4)CC2)c1 | 7.1
C=CCNC(=O)C(Cc1ccc([N+](=O)[O-])cc1)N1C(=O)c2ccccc2C1=O (stereo not drawn) | 0.937
Nc1cc(-c2ccccc2)nn1S(=O)(=O)c1ccccc1 | 2.74
Cn1c(SCc2ccc(F)cc2)nc2ccc(C(=O)NCCCN3CCOCC3)cc21 | -8.99
CCCCC(NC(=O)OCc1ccccc1)C(=O)NC(CCc1ccccc1)C(=O)CO (stereo not drawn) | -2.35
CC1CCc2sc(NC(=O)CCC(=O)O)c(C#N)c2C1 (stereo not drawn) | 8.26
CCC1(C)Cc2ccccc2-c2nc3n(c(=O)c21)CC(C(=O)O)S3 (stereo not drawn) | 3.66

Structure (SMILES) | % Inhibition @ 10 uM [%]
O=c1[nH]c2c(oc3ccccc32)c(=O)n1Cc1ccc(Cl)cc1 | -8.41
CN(CCc1ccccn1)Cc1ccc(N(C)C)cc1 | -9.96
Clc1ccc(-n2ncnc2-c2cccs2)cc1 | -2.48
COc1cc2ccccc2cc1C(=O)Nc1cccc(C)c1C | 2.6
Cc1nc2ccccn2c1-c1csc(Nc2ccc(O)cc2)n1 | -0.0953
CC(C)Nc1nc(OCC(F)(F)F)nc(N(c2ccccc2)c2ccccc2)n1 | -0.744
Cc1ccc(/N=C2/SC(C(=O)O)CC(=O)N2C)cc1C (stereo not drawn) | -0.884
CC(=O)Nc1cccc2nsnc12 | 0.989
CC(=O)c1nc2ccccc2[nH]1 | 7.61
Cc1oc(C(C)(C)C)cc1C(=O)N1CCCC1C(=O)O (stereo not drawn) | -2.98
Cc1cc(C)c2nc(-c3ccc(N)cc3)oc2c1 | 1.62
CCN(CC)S(=O)(=O)c1ccc(NC(=O)c2ccc(Cl)cc2)cc1 | -0.553
CC1=C(c2ccc(Cl)cc2)S(=O)(=O)N=C1NC(C)CCc1ccccc1 (stereo not drawn) | -1.08
CCN(CCO)Cc1csc2cc(C)ccc12 | -6.39
CCCC(=O)NCCc1nc2ccccc2n1CC(=O)c1ccccc1 | 3.49
Cc1cc(NC(=O)c2ccc3c(c2)C(=O)N(C2CCCCC2)C3=O)no1 | 1.31
O=C(CCc1nc(-c2ccccc2F)no1)NCCc1ccccc1Cl | 4.05
O=C(O)c1cccc(N2C(=O)c3ccc(C(=O)O)cc3C2=O)c1 | 1.27
CCc1ccccc1NC(=S)NC(=O)c1ccccc1 | 3.82
Cc1ccccc1-c1nnc2n1C1(CCCC1)Cc1ccccc1-2 | 0.0538
CN(C)c1ccc(/C=C/C(=O)c2cccs2)cc1 | 4.57
O=S(=O)(c1cccc(F)c1)N1CCN(Cc2ccccc2)CC1 | -7.83
O=C(c1ccc(F)cc1F)N1CCN(c2cc(N3CCCCC3)c(F)cc2[N+](=O)[O-])CC1 | 1
Cn1c(=O)c2c(-c3ccc(Cl)cc3)n(C(C)(C)C)cc2n(C)c1=O | -6.85
CCOC(=O)c1sc2nc(C)cc(/C=C\c3ccccc3)c2c1N | -1.68

Structure (SMILES) | % Inhibition @ 10 uM [%]
COc1ccc(C(=O)N/C(=C\c2ccc3c(c2)OCO3)C(N)=O)cc1 | 2.99
Cc1ccc(NC(=O)c2ccc(C)o2)cc1 | -17.2
CCOc1ccc2nc(N3CCC(C(=O)N4CCC5(CC4)OCCO5)CC3)sc2c1 | 1.8
CSc1ccc(CCNC(=O)Cn2ncc3ccsc3c2=O)cc1 | -8.42
Cc1ccc(Cn2c(C)c(CNCCc3ccccc3)c(C(=O)O)c2C)cc1 | -7.36
COc1cc(OC)cc(C(=O)Nc2cccc3ccccc23)c1 | -2.32
COc1ccc(-c2nnc(C3CCN(S(=O)(=O)c4ccc(OC)cc4OC)CC3)o2)cc1 | -1.08
COc1ccc(S(=O)(=O)Nc2ccc(CC#N)cc2)c(Cl)c1Cl | -3.03
O=c1c(Oc2ccccc2)c(C(F)(F)F)oc2c3c(ccc12)OCO3 | -11.2
O=c1c(Cl)c(NCC2CCCO2)cnn1C12CC3CC(CC(C3)C1)C2 (stereo not drawn) | 0.738
COc1ccc(OC)c(CCNC(=O)CCc2nnc3ccc(N4CCN(C)CC4)nn23)c1 | -2.26
CN(CC(=O)NC1CCCc2ccccc21)S(=O)(=O)c1cccc2cccnc12 (stereo not drawn) | -2.42
CC1CCC(Nc2cnn(C34CC5CC(CC(C(=O)O)(C5)C3)C4)c(=O)c2Cl)CC1 (stereo not drawn) | 1.3
O=C(Nc1ccc(OCc2ccccc2)cc1)C12CC3CC(CC(C3)C1)C2 | 3.34
COc1ccc(Nc2ccc3c4c(c5cc(C)ccc5nc24)-c2ccccc2C3=O)cc1 | 15.3
Cc1ncc(CO)c2c1Oc1nc(-c3ccccc3F)nc(SCC(=O)NCC(=O)O)c1C2 | -5.33
CC1C(C(=O)O)CC(C(=O)O)C1(C)C (stereo not drawn) | -1.97
Cn1nc(C(=O)NCc2ccccc2)cc1C(=O)O | 9.92
Cn1cc(/C=C2/SC(=O)N(CC(=O)N3CCCC3)C2=O)c2ccccc21 | 1.05
CCn1ccc(C(=O)Nc2ccc(C)cc2)n1 | 9.65
COc1ccc(CCNCc2c(C(=O)O)c(C)n(Cc3ccc(F)cc3Cl)c2C)c(OC)c1 | -0.23
Cc1ccc(-c2cc(C(=O)NCCN3CCOCC3)c3ccccc3n2)cc1 | -5.46
Nc1nonc1-c1noc(-c2cc3c(ccc4ccccc43)oc2=O)n1 | 1.13
O=C(NCCCN1CCCC1=O)C(=O)NCC(c1cccnc1)N1CCOCC1 (stereo not drawn) | -3.51
